Here are results for 79 sequences from the supplement of paper PMC10126150.

This data set deals with ATP. As to the kind of experiment: switch fluorescence ratio, 500 uM ATP over buffer (Cy3 cluster intensity, sum of 5 cycles each) (fold (ratio)); higher = stronger signal-on switching upon ATP binding; sequences stand for … in TCGTCGGCAGCGTCAGATGTGTATAAGAGACAGTTTTTTTTTTTTTTTTTTTTTTTTT…TC. The conditions noted are these: aptamer strand: ATP DNA aptamer (quencher-CACCTGGGGGAGTATTGCGGAGGAAGG + anchor), 100 nM annealed; ATP concentration: 500 uM; one replicate. The method in brief: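 For every switch-domain sequence, the fluorescence ratio is the mean of per-cluster values, each being summed target-cycle Cy3 intensity over summed buffer-cycle Cy3 intensity. Clusters outside 100-1000 RFU were excluded. On a modified Illumina MiSeq flow-cell, the Cy3-labelled switching-strand clusters were annealed to 100 nM quencher-labelled ATP aptamer, imaged in selection buffer and then after 15 min with 500 uM ATP at 22 °C. Five such cycles were run, with NaOH stripping and re-annealing between them.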

Values marked as one replicate rest on one cluster of the flow cell; about a third of the high ones do not repeat.
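Also: ATP exposure 15 min at 22 °C before imaging.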

Take GATTTGCGTT: the switch fluorescence ratio stood at 0.978.

For the sequence TAACGGTTCG, the switch fluorescence ratio was found to be 0.986.

Consider TGGGGGATT, for which the switch fluorescence ratio was 0.976. As for GGAAATTTT, the figure is 0.995; as for TCCAGCGGA, 0.983.

GTCCGTGGCG: the switch fluorescence ratio was 0.968. As for TACGTGGCC, the figure is 0.983; as for CTAAGAGCTG, 0.942.

Consider TTTCGTTCCT, for which the switch fluorescence ratio turned out to be 1.09. As to GACGGAGATC, the switch fluorescence ratio was determined as 0.986. Regarding ATAGGGCAGA, the switch fluorescence ratio was 0.995. As for GAAGCCAAGC, the figure is 1.16; as for TTAAACATGG, 0.996; as for AAATGAGAAA, 0.982.

AAGTTAGA: the switch fluorescence ratio turned out to be 0.995. As to CGCACCCGGG, the switch fluorescence ratio is 1.25. For TACACCCTCG, the switch fluorescence ratio was 1.13. On to CGGATAGATA, for which the switch fluorescence ratio was found to be 0.978. To AGGTCACAGA belongs 1.07; to AGTAGACGTT, 1.04; to CTTTGGGCTC, 0.974. To ACGGTGGGAT belongs 0.989; to TAAGTGTACA, 1; to GGGACTCATG, 1.06. As for AGCTTGCGGT, the figure is 1.01. On to GTGGGGAGGC, for which the switch fluorescence ratio turned out to be 0.953. For the sequence TGGGGTAGTA, the switch fluorescence ratio was found to be 0.902. To TCAATTAAAC belongs 1.01; to CGCTACATTC, 1.6; to TTTACTGTGA, 0.99. On to GGGAAAAGCG, for which the switch fluorescence ratio was determined as 0.945. Turning to AGGAATTAGC, the switch fluorescence ratio came out at 1.05. As for TCCAAAGCGG, the switch fluorescence ratio worked out at 2.26.

In the case of AACTAAGGTT, the switch fluorescence ratio stood at 0.994.

On to AGGAGGGTCC, for which the switch fluorescence ratio turned out to be 0.942. As for CTGGACGTTG, the figure is 1.03; as for GCAGAGTTTT, 1.04; as for ATTTGGAATG, 1. As for AAATATGCAA, the figure is 1.08; as for GGGAGCGGCG, 1.02.

For the sequence TTACCGATGG, the switch fluorescence ratio turned out to be 1.04. TCCCGTCGGT: the switch fluorescence ratio came to 1.02. To TCAGATTTGT belongs 0.982; to TTTTGGACG, 1.01.

As to CGCAAATTTC, the switch fluorescence ratio came to 3.67. To GGTGGTGAGA belongs 0.976. Take TATTGCTGC: the switch fluorescence ratio turned out to be 0.959.

Turning to TTGGTGACGA, the switch fluorescence ratio amounted to 1.01. Turning to CGCGGGGAAA, the switch fluorescence ratio was 1.03.

As for GCCTTTACTA, the switch fluorescence ratio amounted to 1.03. As for CAACCTAAAT, the figure is 1.01; as for GAACATTAGT, 1.11; as for GAGCGTATTA, 1.01. For CCGTAGCAGT, the switch fluorescence ratio was found to be 2.39. To CCCCAGTGTA belongs 4.06; to CCATTTTGAG, 1; to ATCAATGCAG, 1. To TCTATTCCA belongs 1.01. For the sequence GTGCGGGGTG, the switch fluorescence ratio is 0.995. To CTGGGTGAAG belongs 1.01; to GCGTTTGGTT, 1.01. To TCCAGTACAG belongs 1.05.

For GGAAGGCTCT, the switch fluorescence ratio stood at 0.995. TTAGCGAACA: the switch fluorescence ratio worked out at 1.04. GGTTTCGCTG: the switch fluorescence ratio worked out at 1.03.

As to TTATCCTCTG, the switch fluorescence ratio came to 1.08.

Turning to ACGTAGTGGG, the switch fluorescence ratio was determined as 1.08. As for GAACACTGGG, the figure is 1.01; as for CCTAGAATTG, 1; as for ACCTGTTTGG, 0.995. Take ATGCACGATC: the switch fluorescence ratio was 1.02. Regarding TATTTTCGTC, the switch fluorescence ratio stood at 1.01. To TCGTGGCATC belongs 1.07. With TGGCACCCGC, the switch fluorescence ratio turned out to be 0.983. To ATGATACTCT belongs 1.05; to TCTATACTCA, 1.05.

As to TGCGAAAAGA, the switch fluorescence ratio was 0.966.

As for AAAAAGAAGT, the switch fluorescence ratio was found to be 0.979. Take ACGAATATGG: the switch fluorescence ratio came out at 1.07.
